The values below come from PubChem BioAssay AID1240 (Sanford-Burnham Center for Chemical Genomics, 2008).

The whole screen tested about 50,000 compounds, of which about 800 (1.6%) showed an effect of 50% or more. Some of the results follow.

For this assay, the target named is Bcl-2-like protein 10 (Homo sapiens) (UniProt Q9HD36). The experiment in a line: TR3 peptide-Bcl-B binding displacers, biochemical primary FP assay, phenotype converters (AID 1240).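 Also: 0% = Bcl-B with tracer peptide and DMSO and 100% = tracer peptide lacking Bcl-B.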 To be noted: GST-Bcl-B / FITC-TR3 peptide fluorescence polarization; stronger effect = higher value; compound at 3.75 mg/L.
UniProt Q9HD36, sequence (Q9HD36 whole entry, looked up): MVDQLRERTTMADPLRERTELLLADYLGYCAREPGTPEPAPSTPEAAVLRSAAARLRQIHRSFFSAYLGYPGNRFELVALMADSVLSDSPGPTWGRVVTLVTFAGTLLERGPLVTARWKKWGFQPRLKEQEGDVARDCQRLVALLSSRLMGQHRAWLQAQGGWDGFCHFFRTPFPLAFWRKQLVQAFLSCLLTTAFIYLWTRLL
Turning to `COc1ccc(-n2nc3cc(C)c(NC(=O)C(c4ccccc4)c4ccccc4)cc3n2)cc1`, the displacement was found to be 0.6%.
For the compound `O=C1CC(c2cc([N+](=O)[O-])ccc2Cl)c2cc(Br)c3ccccc3c2N1` (stereo not given), the displacement is -9.3%.
In the case of `CC(C)(C)NC(=O)C(=O)NN=C1CCCC1` it was 0.3%.
In the case of `C=CCn1c(SCC(=O)Nc2ccccc2OC)nc(O)c(Cc2ccccc2)c1=O` it was -4.3%; in that of `O=C(/C=C/c1ccccc1)NC(=S)Nc1ccc(N2CCOCC2)cc1`, 11.2%.
`CCN(CC)c1ccc(NC(=O)c2ccc(I)cc2)cc1`: the displacement amounted to 1.7%.
In the case of `COc1ccccc1NC(=O)CC1S/C(=N\N=C(/C)c2ccc(Cl)cc2)NC1=O` (stereo not given) it was -0.6%; in that of `CCOc1ccc2nc(SCC(=O)c3ccccc3)sc2c1`, -11.3%; in that of `COc1c(Br)cc(/C=C2\SC(=S)NC2=O)cc1Br`, -26.2%.
The value for `Cc1ccccc1C(=O)Nc1cccc(-c2nnc(-c3ccccc3)o2)c1` was 3.2%.
The value for `Cc1ccc(CN2C(=O)C(C)(C)Nc3ccccc32)c(C)c1` was -1%; that for `Cc1cc(N2CCN(c3ccccc3)CC2)nc2ccccc12` was -0.9%.
For `Cc1ccc2oc(-c3cc(NC(=O)c4cccs4)ccc3O)nc2c1`, the displacement turned out to be 5.7%.
In the case of `CC1CSc2nc3sc4c(c3c(=O)n21)CCCC4` (stereo not given) it was -12.9%.
In the case of `O=C(NCCCO)C1CC(=O)N(c2ccccc2)C1` (stereo not given) it was 9.7%; in that of `O=C(Nc1ccc(Cl)c2c1C(=O)c1ccccc1C2=O)c1ccc([N+](=O)[O-])cc1Cl`, -7.9%; in that of `O=C(O)c1c(F)c(F)c(N2CCOCC2)c(F)c1F`, -5.1%.
In the case of `O=[N+]([O-])c1ccc(-c2nnc(-c3ccco3)o2)c(Cl)c1`, the displacement came out at 14%.
Turning to `N#C/C(=C(/O)c1ccco1)c1nc2ccccc2[nH]1`, the displacement was -7.2%.
The value for `O=C1c2ccc(-c3nc4ccccc4o3)cc2C(=O)N1c1cccc(-c2nc3ccccc3o2)c1` was -1.2%; that for `O=C(CCN1C(=O)c2ccccc2C1=O)Nc1ccccc1C(=O)N1CCOCC1` was 10%; that for `CC1CCN(C(=O)c2ccccc2[N+](=O)[O-])CC1` was 13.9%.
With `Cc1ccc(S(=O)(=O)NN2C(=O)/C(=C/c3ccc(F)cc3)SC2=S)cc1`, the displacement was found to be 2%.
The value for `Cc1c(C(=O)Nc2ccccc2C(N)=O)cccc1[N+](=O)[O-]` was 17.8%; that for `NC(=O)c1cccc(NC(=O)c2ccccc2C(=O)O)c1` was -13.5%; that for `Cc1cccc2c1[nH]c1nc(SCC(C)C)nnc12` was 10.4%.
The value for `Cc1ccc(OCCOCCOc2ccccc2/C=C2/SC(=S)NC2=O)cc1` was 9.8%.
In the case of `CCN(CC)C(=O)CSc1nc(C)cc(=O)[nH]1` it was -4.5%; in that of `CC(C)C(=O)N1c2ccccc2C(N(C(=O)c2ccc([N+](=O)[O-])cc2)c2ccccc2)CC1C` (stereo not given), 16.1%.
Turning to `NC(=O)c1c(/N=C/c2cc(Cl)cc(Cl)c2O)sc2c1CCCC2`, the displacement is -5.9%.
The value for `O=C(COc1ccccc1)N1CCN(C(=O)Cc2ccccc2)CC1` was -1.8%.
In the case of `O=[N+]([O-])c1ccccc1/C=N/Nc1nc(-c2ccccc2)cc(-c2ccccc2O)n1` it was -6.1%.
The value for `CCOC(=O)C1=C(C)N=C2SC(C)C(=O)N2C1c1ccc(OC)cc1` (stereo not given) was -10.9%; that for `CC1CCN(C(=O)c2ccccc2N(Cc2ccccc2)S(=O)(=O)c2ccccc2)CC1` was -1%; that for `Cc1ccc(S(=O)(=O)NC(=O)NC(C)c2ccccc2)cc1` (stereo not given) was 7.4%.
For the compound `Cc1ccc(OCC(=O)Nc2nccs2)c(C)c1`, the displacement was -3.9%.
For the compound `O=C1C2C(C(=O)N1c1cc(C(F)(F)F)ccc1Cl)C1C=CC2C12CC2` (stereo not given), the displacement amounted to 15.9%.
The value for `Cc1cc(C(=O)Nc2ccc3nn(-c4ccccc4)nc3c2)ccc1[N+](=O)[O-]` was 0.7%; that for `Cc1cc(OCCCCCCN2CCCC2)cc(C)c1Cl` was 9.3%.
In the case of `Cc1ccc(-c2nc3ccccc3o2)cc1NC(=O)c1ccco1` it was 3.1%; in that of `COc1ccccc1/C=C/C=NN1CCN(Cc2ccccc2Cl)CC1`, 0.1%; in that of `COc1ccc(OC)c(N(CC(=O)Nc2cccc(C(F)(F)F)c2)S(C)(=O)=O)c1`, 13.1%.
In the case of `O=C(CCCOc1ccc(Cl)cc1Cl)Nc1ccc([N+](=O)[O-])cc1` it was 13.7%.
`O=C1/C(=C/c2cn(Cc3ccccc3Cl)c3ccccc23)Sc2ccccc21`: the displacement worked out at 49%.
In the case of `Cc1ccccc1C(=O)Nc1cccc(NC(=O)c2ccc(-c3ccc(Br)cc3)o2)c1` it was 21.4%.
In the case of `CC(C)(C)NC(=O)CN(c1ccc(Br)cc1)S(C)(=O)=O` it was 10.6%; in that of `O=c1[nH]cnc2scc(-c3ccc(-c4ccccc4)cc3)c12`, 14.2%.
The value for `Cc1ccc(C)c(NC(=O)COc2cccc(C)c2C)c1` was -2.5%.
With `COc1cc(/C=C2\SC(=S)N(c3cccc(C(F)(F)F)c3)C2=O)cc(OC)c1OC`, the displacement was -7%.
In the case of `Cc1ccc(-c2ccc(OCC(=O)N3CCCc4ccccc43)cc2)cc1` it was 59.3%; in that of `O=Cc1ccc(OC(=O)c2sc3ccccc3c2Cl)cc1`, 16.3%.
In the case of `C=COCCNC(=O)C(=O)Nc1ccc(C)cc1`, the displacement came out at 1%.
In the case of `Cc1ccc(OCC(=O)Nc2ccc(C(=O)Nc3cccc(O)c3)cc2)cc1C` it was -7.9%; in that of `COc1ccc2c(c1)OCC/C2=N\OC(=O)c1cccc(Br)c1`, -8.4%; in that of `Cc1cc(OCC(=O)O/N=C(\N)c2ccc([N+](=O)[O-])cc2)ccc1Br`, 0.7%.
In the case of `Cc1sc(NC(=O)/C=C\C(=O)O)nc1-c1ccccc1` it was -5.8%; in that of `O=[N+]([O-])c1cccc(S(=O)(=O)NC2C3CC4CC(C3)CC2C4)c1` (stereo not given), 4.7%; in that of `CCOc1ccc(C(=O)Nc2ccc(N(CC)CC)cc2)cc1`, 13.6%.
As to `CCOc1ccc(C(=O)Nc2ccc(-c3nc4ccccc4s3)cc2)cc1[N+](=O)[O-]`, the displacement amounted to 3.4%.
For the compound `O=C(COC(=O)C1CCCN1C(=O)Oc1ccccc1)c1ccc([N+](=O)[O-])cc1` (stereo not given), the displacement was 6.4%.
On to `COc1ccccc1C(=O)Nc1ccc(OC(F)(F)F)cc1`, for which the displacement came to 11.2%.
Regarding `CC(=O)Oc1ccc2c(c1)c(C(C)=O)c(C)n2-c1ccccc1`, the displacement was -2%.
The value for `COc1ccc(-c2cc(=O)oc3cc(O)ccc23)cc1` was 0.7%; that for `Cc1ccc(NC(=O)CSc2ncn[nH]2)cc1` was 8.2%.
As for `Cc1ccc(Cl)cc1NC(=O)CSc1nnnn1-c1ccccc1`, the displacement came to 1.8%.
The value for `Fc1cc(F)c(F)c(SCCc2ccncc2)c1F` was 5.9%; that for `Oc1c(Br)cc(Cl)cc1/C=N/Nc1nnc2c(n1)[nH]c1ccccc12` was 24%.
In the case of `CCc1cc(=O)oc2cc(OCC(=O)O)ccc12` it was -6.3%; in that of `O=C(Nc1nnc(-c2ccc(F)cc2)s1)c1ccc(Cl)cc1Cl`, -11.6%.
The value for `Cc1nn(C(=O)c2ccnn2C)c(C)c1Br` was 0.4%; that for `O=S(=O)(c1cccs1)N1CCN(Cc2ccccc2)CC1` was -11.1%.
On to `Cc1cc(/C=C2/SC(=S)NC2=O)c(C)n1-c1ccc(F)cc1`, for which the displacement was -6.4%.
The value for `O=C(COc1ccccc1)Nc1ccc(Nc2ccccc2)cc1` was 5.2%; that for `O=C(COc1ccccc1)/C(=C(/O)c1ccccc1)c1nc2ccccc2[nH]1` was 6.5%.
In the case of `CCCN(CCC)CCCNC(=O)C(=O)Nc1cccc(C(F)(F)F)c1` it was -2.3%; in that of `CCCCNC(=O)C1CC(=O)N(c2ccc(CC)cc2)C1` (stereo not given), 3.5%; in that of `COc1ccccc1NC(=O)c1ccn(C(=O)c2cccc(I)c2)n1`, -2.1%.
In the case of `CCOC(=O)c1cc(Br)c(Cl)cc1[N+](=O)[O-]` it was -16.9%; in that of `COc1ccc(N=Cc2ccc([N+](=O)[O-])s2)c([N+](=O)[O-])c1`, -1.7%.
With `CCOc1ccc2nc(N(C)C)[nH]c2c1`, the displacement was found to be 0.5%.
The value for `CCOC(=O)c1c(NC(=O)C2C3C=CC(C3)C2C(=O)O)sc2c1CCC2` (stereo not given) was -4.7%.
The value for `COC(=O)COC(=O)c1c(Cl)ccc(Cl)c1OC` was 9.8%; that for `COc1ccc(/C=C2\C(=O)N(c3cccc(C(=O)O)c3)N=C2C)cc1` was -1.3%.
As to `Cc1ccccc1NC(=O)CN(c1ccc(Oc2ccccc2)cc1)S(C)(=O)=O`, the displacement turned out to be 1.7%.
In the case of `O=C(CO/N=C/c1ccccc1)N=Nc1c(O)[nH]c2ccc(Br)cc12` it was 3%.
The value for `O=C(CCCN1C(=O)c2ccccc2C1=O)Nc1ccccc1C(=O)N1CCOCC1` was 11.9%; that for `Cc1cccc(C(=O)NCc2ccco2)c1` was -28.7%; that for `CC(C)(C)C(=O)Nc1ccc(Cl)cc1C(=O)O` was 2.5%.
In the case of `O=C(Nc1cc(Cl)ccc1Cl)c1ccc(-c2ccc(Cl)cc2)o1` it was 43%.
Turning to `O=C(Nc1ccccc1Cl)c1ccc(CN2CCc3ccccc3C2)cc1`, the displacement is 12.1%.
Turning to `O=c1c2ccccc2nc(/C=C/c2ccc([N+](=O)[O-])cc2)n1Cc1ccccc1`, the displacement stood at 118%.
For `CCOC(=O)Cc1csc(NC(=O)CCN2C(=O)c3cccc([N+](=O)[O-])c3C2=O)n1`, the displacement was -7.4%.
In the case of `Cc1nn(-c2ccccc2)c(C)c1/C=N/NC(=O)c1cc(-c2ccccc2)n[nH]1` it was -3.8%.
Take `COc1ccc(C)cc1NC(=O)c1ccccc1[N+](=O)[O-]`: the displacement was -1.8%.
The value for `O=C(COc1cccc(Cl)c1)N/N=C/c1c(Br)cc(Br)c(O)c1Br` was 2.7%.
In the case of `CCN(CC)CCCCCOc1cccc2ccccc12` it was 17.3%.
In the case of `O=[N+]([O-])c1cccc(-c2csc(N/N=C\c3cccc(O)c3)n2)c1` it was 1.9%; in that of `Cc1cccn2c(=O)c(/C=C3\SC(=S)N(Cc4ccco4)C3=O)c(NCCCn3ccnc3)nc12`, 8.9%; in that of `O=C1/C(=C/Nc2ccccc2NS(=O)(=O)c2ccc([N+](=O)[O-])cc2)CCc2ccccc21`, 8.1%.
Consider `COC(=O)CN1C(c2ccccc2)=Nc2ccc(Br)cc2C1c1ccccc1` (stereo not given), for which the displacement was 2.2%.
The value for `Cc1ccc(OCCOCCOc2cccc(/C=c3\sc4nc5ccccc5n4c3=O)c2)cc1` was 11.4%.
In the case of `O=C(NCc1ccccn1)C(Sc1ccccc1)c1ccccc1` (stereo not given) it was -4.3%; in that of `O=C1/C(=C\c2c(Cl)cccc2Cl)SC(=S)N1c1ccc(F)cc1`, -7.2%; in that of `O=C(Nc1ccc(Cl)c(-c2nc3ccccc3o2)c1)c1cccs1`, 10.1%.
Regarding `Cc1cccc(C(=O)NCC(C)CN(C)C)c1` (stereo not given), the displacement is 11.2%.
As for `COc1ccc(OC)c(N(CC(=O)Nc2ccc(Oc3ccccc3)cc2)S(C)(=O)=O)c1`, the displacement was found to be 10.7%.
As to `COc1ccc(N(CC(=O)Nc2ccccc2F)S(=O)(=O)c2ccc(OC)c(OC)c2)cc1`, the displacement was -18.6%.
In the case of `O=S(=O)(NC(=S)c1ccccc1)c1ccc(I)cc1` it was 11.9%; in that of `C#CCSc1nc(C)cc(C)c1C#N`, -8.7%.
The value for `CCOc1ccc(NC(=O)C2CC2(c2cccc(OC)c2)c2cccc(OC)c2)cc1` (stereo not given) was -12.9%.
